Results taken from PubChem BioAssay AID1476 (National Center for Advancing Translational Sciences (NCATS), 2009).
The whole screen tested about 200,000 compounds, of which about 4,500 (2.2%) were called active. Inconclusive means that the source gave no clear call. Such entries were picked first, then a sample of the others. Calls follow the shape of the dose curve; as a rule, active = well fitted inhibition curve with a large enough effect; inconclusive = small, poorly fitted or top-dose-only effect, or effect the other way; inactive = flat fitted curve, though single readings scatter. A potency beside an inconclusive call is a rough fit, not a confirmed value.

These compounds were tested against Cruzipain (Trypanosoma cruzi) (UniProt P25779) (assay: qHTS Assay for Promiscuous and Specific Inhibitors of Cruzain (without detergent)). Conditions: purified cruzain, Z-FR-AMC fluorescence, no detergent.
UniProt P25779, sequence (P25779 whole entry, looked up): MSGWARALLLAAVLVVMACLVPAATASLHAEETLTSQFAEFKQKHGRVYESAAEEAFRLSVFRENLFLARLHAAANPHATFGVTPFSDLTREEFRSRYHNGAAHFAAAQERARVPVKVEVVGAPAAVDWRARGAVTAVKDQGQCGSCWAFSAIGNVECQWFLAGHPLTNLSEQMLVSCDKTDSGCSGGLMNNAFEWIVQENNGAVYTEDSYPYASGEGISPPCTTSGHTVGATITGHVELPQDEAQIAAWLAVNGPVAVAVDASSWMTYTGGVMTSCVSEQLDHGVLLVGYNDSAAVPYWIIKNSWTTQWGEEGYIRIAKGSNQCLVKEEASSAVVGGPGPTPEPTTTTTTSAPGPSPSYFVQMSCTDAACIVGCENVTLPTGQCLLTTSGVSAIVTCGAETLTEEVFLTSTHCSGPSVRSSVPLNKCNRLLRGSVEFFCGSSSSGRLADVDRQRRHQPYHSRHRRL
Summary of the method: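 Detergent-free condition (0.00005% Triton X-100) in acetate buffer pH 5.5 with DTT. 1.5 nM enzyme and compound were pre-mixed 15 min, then 2 uM Z-FR-AMC substrate added; reaction progress from fluorescence change between first and third reads (60 s).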
Also: nearly all actives have a fitted effect of over 40% in size.
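For max response, negative = inhibition in this document: plate controls were enzyme without inhibitor for no effect and buffer without enzyme for full effect.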
Potency is read from the fitted curve at half-maximal effect; tags tell the direction and shape of the fitted curve.

Row | SMILES | max response, negative = inhibition | Potency
1 | CCOc1ccc(NC(=O)Cn2c(=O)n(CC(=O)NCc3ccccc3Cl)c(=O)c3sccc32)cc1 | inactive: 3.39% | 
2 | O=C(Nc1ccc(Br)cc1)C1CCCN1S(=O)(=O)c1ccc(F)cc1 (stereo not drawn) | inactive: -4.72% | 
3 | CCOC(=O)C1=C(C)NC(=O)NC1c1ccsc1 (stereo not drawn) | inactive: 1.88% | 
4 | CCN(c1ccccc1)S(=O)(=O)c1nnc(NC(=O)COc2cccc(C)c2)s1 | inactive: 7.97% | 
5 | Cc1ccc(CNC(=O)CNS(=O)(=O)c2cccs2)cc1 | inactive: -9.14% | 
6 | O=C(NC1CCN(C(=O)N2c3ccccc3Sc3ccccc32)CC1)c1ccco1 |  | inconclusive: 31.6 µM [activator, single point]
7 | Cc1cc(C)cc(-n2c(C)cc(/C=N\NC(=O)COc3cccc4cccnc34)c2C)c1 |  | inconclusive: 31.6 µM [inhibitor, single point]
8 | CN(C)c1ccc(CNC(=O)CN2CCSc3ccc(S(=O)(=O)N(C)C)cc32)cc1 | inactive: -0.833% | 
9 | Cc1cc(C)nc(NC(=NCCc2c[nH]c3ccccc23)NC(=O)Nc2ccc(Cl)cc2)n1 |  | active: 25.1 µM
10 | O=C(COC(=O)c1nc(-c2ccccc2)n(-c2cccc(C(F)(F)F)c2)n1)NCc1cccs1 |  | inconclusive: 25.1 µM [activator, single point]
11 | Cc1ccc(C)c(CN2C(=O)c3ccccc3S(=O)(=O)c3ccc(C(=O)NCCC4=CCCCC4)cc32)c1 |  | active: 31.6 µM
12 | Cc1cccc2cc(CN(Cc3ccco3)C(=O)Nc3cccc(C#N)c3)c(Cl)nc12 |  | inconclusive: 31.6 µM [inhibitor, single point]
13 | COc1ccc(Nc2oc(-c3ccc(COc4ccccc4C)o3)nc2C#N)cc1 |  | inconclusive: 31.6 µM [inhibitor, single point]
14 | Cc1ccc(C(=O)c2cn(Cc3ccc(Cl)cc3)c3nc(C)ccc3c2=O)cc1 | inactive: -17.4% | 
15 | Cc1cc(C)cc(N2C(=O)N(Cc3cccc(F)c3)c3ccccc3S2(=O)=O)c1 |  | inconclusive: 39.8 µM [inhibitor, single point]
16 | CSc1ccc(/C=N/NC(=O)CNc2cccc3ccccc23)cc1 |  | inconclusive: 39.8 µM [inhibitor, single point]
17 | Cc1nnc(Sc2nc3c(c(=O)n(C)c(=O)n3C)n2Cc2ccc(Cl)cc2)s1 |  | inconclusive: 12.6 µM [activator, single point]
18 | CCOc1ccc(Cn2c3ccc(OC)cc3c3nc4ccccc4nc32)cc1OC |  | inconclusive: 3.98 µM [activator, single point]
19 | Cc1cc2cc(C#N)c(NCCNC(=S)NCCCN3CCOCC3)nc2cc1C |  | inconclusive: 25.1 µM [inhibitor, single point]
20 | O=C(CN(c1ccc(Cl)c(C(F)(F)F)c1)S(=O)(=O)c1ccccc1)N1CCOCC1 |  | inconclusive: 31.6 µM [activator, single point]
21 | COc1cccc([C@@H]2Oc3ccc(OC)cc3C(=O)[C@H]2OC(=O)NS(=O)(=O)c2ccc(C)cc2)c1 | inactive: -0.596% | 

Row | SMILES | max response, negative = inhibition | Potency
22 | Cc1onc(-c2ccccc2Cl)c1C(=O)Nc1nnc(Cc2ccc(Cl)cc2)s1 |  | inconclusive: 39.8 µM [inhibitor, single point]
23 | CCN(Cc1ccccc1)S(=O)(=O)c1ccc(C(=O)Nc2nnc(-c3ccccc3OC)o2)cc1 |  | inconclusive: 12.6 µM [activator, partial curve]
24 | O=C(Nc1cnc(N2CCN(c3ccccc3)CC2)c(C(=O)O)c1)c1cccs1 | inactive: -4.2% | 
25 | CC(C)(C)C1CCc2oc3ccc(NS(=O)(=O)c4ccc(C(=O)O)cc4)cc3c2C1 (stereo not drawn) |  | inconclusive: 25.1 µM [activator, partial curve]
26 | COc1ccccc1CNC(=O)c1cn(C)c2ccc(S(=O)(=O)N(C)C3CCCCC3)cc2c1=O |  | inconclusive: 10 µM [activator, partial curve]
27 | O=c1cc(CN2CCc3ccccc32)nc2sccn12 |  | inconclusive: 39.8 µM [inhibitor, single point]
28 | CC(C)c1ccc(S(=O)(=O)N2CCN(C(C)C(=O)Nc3ccccc3-c3ccccc3)CC2)cc1 (stereo not drawn) |  | inconclusive: 39.8 µM [inhibitor, single point]
29 | Cc1onc(-c2ccccc2Cl)c1C(=O)Nc1nnc(-c2cccc([N+](=O)[O-])c2)s1 | inactive: -15.3% | 
30 | CCC(C)c1ccc(NC(=O)C2CCN(c3ncccn3)CC2)cc1 (stereo not drawn) | inactive: 17.1% | 
31 | CCOC(=O)CSc1nc2c(sc3ccccc32)c(=O)n1CCO | inactive: 24.7% | 
32 | CCOc1ccc(C(=O)NC(=S)Nc2ccccc2N2CCCCC2)cc1[N+](=O)[O-] |  | inconclusive: 39.8 µM [inhibitor, single point]
33 | Cc1ccc(C)c(NC(=S)NC(NC(=O)/C=C/c2ccccc2)C(Cl)(Cl)Cl)c1 (stereo not drawn) |  | inconclusive: 39.8 µM [inhibitor, single point]
34 | CCOc1ccc(-c2nnc3ccc(SCc4ccc(C(=O)OC)o4)nn23)cc1 |  | inconclusive: 39.8 µM [activator, single point]
35 | BrC(/C=N/Nc1nc(N2CCOCC2)nc(N2CCOCC2)n1)=C/c1ccccc1 |  | inconclusive: 39.8 µM [activator, single point]
36 | Cc1ccc(N=C2NC(=O)/C(=C\c3cccs3)S2)cc1C |  | active: 25.1 µM
37 | COC(=O)c1cc(OC)c(OC)cc1N=CC1=C(O)CC(C)(C)CC1=O |  | inconclusive: 20 µM [activator, partial curve]
38 | COc1ccc(Cl)cc1NC(=S)NCCC(c1ccccc1)c1ccccc1 |  | inconclusive: 25.1 µM [inhibitor, single point]
39 | CCOc1ccc(C2c3cc(OC)c(OC)cc3CC(=O)N2c2ccccc2)cc1 (stereo not drawn) |  | inconclusive: 39.8 µM [activator, single point]
40 | Cc1ccc(Cl)cc1-n1ncc2c(N3CCN(Cc4ccccc4)CC3)ncnc21 | inactive: -4.31% | 
41 | Cc1cccc(-n2c(CNC(=O)c3cccc(F)c3)nnc2SCC(=O)Nc2ccccc2F)c1 |  | inconclusive: 39.8 µM [activator, single point]
42 | Brc1ccc(-c2csc(-c3c[nH]c4ccccc34)n2)cc1 |  | inconclusive: 39.8 µM [inhibitor, single point]

Row | SMILES | max response, negative = inhibition | Potency
43 | O=C(C1CCN(S(=O)(=O)Cc2ccccc2)CC1)N1CCN(c2cccc(C(F)(F)F)c2)CC1 | inactive: -3.13% | 
44 | O=C(CNC(=O)c1cc2c(s1)CCC2)Nc1ccccc1Br |  | inconclusive: 25.1 µM [inhibitor, single point]
45 | COc1cc(C(=O)OCC(=O)c2cc(C)n(C)c2C)cc(OC)c1OC |  | inconclusive: 39.8 µM [activator, single point]
46 | CN(C)S(=O)(=O)c1ccc(C(=O)NCCSc2c(-c3ccccc3)[nH]c3ccccc23)cc1 |  | inconclusive: 39.8 µM [inhibitor, single point]
47 | Nc1[nH]nc2c1NN(c1ccc(Cl)cc1Cl)N2 |  | active: 20 µM
48 | COC(=O)c1ccc(C(NC(=O)OCc2ccccc2)/C(F)=C/[C@@H](C)C(=O)NCCO)cc1 (stereo partly drawn) |  | inconclusive: 39.8 µM [activator, single point]
49 | COc1ccc(N(Cc2cc3cccc(C)c3[nH]c2=O)C(=O)c2cccc(Cl)c2)cc1 |  | inconclusive: 39.8 µM [inhibitor, single point]
50 | O=C(N/N=C/c1cccc([N+](=O)[O-])c1)c1cc2ccccc2o1 |  | inconclusive: 39.8 µM [inhibitor, single point]
51 | CCOC(=O)N1CCC(NC(=O)c2cnn3c(C(F)(F)F)cc(-c4cccc(OC)c4)nc23)CC1 |  | inconclusive: 31.6 µM [activator, single point]
52 | CCC1(CC)Cc2ccccc2-c2nc(-c3ccccc3)oc(=O)c21 |  | inconclusive: 39.8 µM [inhibitor, single point]
53 | Cc1cccc(Cn2c(=O)n(Cc3ccccc3)c(=O)c3c2c2cc(C)ccc2n3C)c1 |  | inconclusive: 25.1 µM [inhibitor, single point]
54 | CC(=O)c1ccc(NS(=O)(=O)c2c(C)nc3scc(C)n3c2=O)cc1 | inactive: -4.15% | 
55 | COc1ccccc1N1Cc2ccccc2C1 |  | active: 15.8 µM
56 | CCn1cc(C(=O)NCCc2ccc(OC)c(OC)c2)c(=O)c2cc(S(=O)(=O)N3CCCCCC3)ccc21 |  | inconclusive: 6.31 µM [activator, full curve]
57 | Cn1c(=O)n(C)c2cc([N+](=O)[O-])c(N3CCN(C(=O)c4cccc(Cl)c4)CC3)cc21 |  | inconclusive: 39.8 µM [activator, single point]
58 | Cc1cc(C)cc(NC(=O)COC(=O)CCCNC(=O)c2ccc(Cl)cc2)c1 |  | inconclusive: 39.8 µM [activator, single point]
59 | O=C1c2ccccc2C(=O)N1CN(C(=O)COc1ccc(Cl)cc1Cl)c1cccc(F)c1 |  | inconclusive: 15.8 µM [inhibitor, partial curve, poor fit]
60 | CCNC(=O)c1c(O)c2ccccc2[nH]c1=O | inactive: 1.4% | 
61 | NC(=O)c1ccc(NC(=O)COC(=O)c2c3c(nc4ccccc24)/C(=C\c2ccc4c(c2)OCO4)CCC3)cc1 |  | inconclusive: 31.6 µM [inhibitor, single point]
62 | Cc1cc2nc(-c3cccnc3SCC(=O)NCc3ccco3)[nH]c2cc1C |  | inconclusive: 31.6 µM [activator, single point]
63 | O=[N+]([O-])c1nn(-c2ccc3c(c2)OCCO3)n(O)c1=Nc1ccccc1 |  | inconclusive: 31.6 µM [inhibitor, single point]
